# Measured values taken from PubChem BioAssay AID463173 (ICCB-Longwood Screening Facility, Harvard Medical School, 2010).
# Hit rate of the full screen: of about 52,000 compounds, about 1,700 (3.3%) were called active. Cut-off read from the data, not from the text of the source: active = survival mostly below about 52% (no sharp cut-off); inactive = mostly above about 56%. The list shows a part of the results.
# Test system: Wild type
# Test: growth inhibition of S. aureus wild type versus tarO mutant, primary screen, teichoic acid synthesis inhibitors, RN4220, OD600 (AID 463173)
# Conditions: S. aureus RN4220 wild type/DeltatarO growth, OD600, 18 h, stronger effect = lower value, screened at 18.75 µg/mL (by protocol)
row,SMILES,survival
1,O=C(CSc1ncccn1)N1CCc2ccccc2C1,inactive: 100%
2,N#C/C(=C\c1cn(CC(=O)N2CCCC2)c2ccccc12)C(=O)NC1CC1,inactive: 103%
3,Cc1ccc(-n2c(=O)c3ccc(C(=O)NCc4ccco4)cc3n(Cc3ccccc3Cl)c2=O)cc1,inactive: 86%
4,CCOC(=O)c1c(-c2cccs2)csc1NC(C)=O,inactive: 102%
5,Brc1cccc(-c2nnn3c2nc(NC2CCCCC2)c2ccccc23)c1,inactive: 80%
6,Cc1nn(-c2ccc(N3CCOCC3)nn2)c(C)c1CCC(=O)NCc1ccc(Cl)cc1,inactive: 136%
7,O=C(COc1ccc(Cl)cc1)N1CCCCC1,inactive: 102%
8,CCS(=O)(=O)c1ncc(Cl)c(C(=O)Nc2ccc(S(=O)(=O)N(C)c3ccccc3)cc2)n1,active: 8%
9,CC1CCCCN1CCNC(=O)c1ccc(Cn2c(SCc3ccccc3)nc3cccnc32)cc1 (stereo unspecified),inactive: 93%
10,Nc1n[nH]c(CCc2ccccc2)n1,inactive: 121%
11,CCN1CCN(C(C)C(=O)NC(c2ccccc2)c2ccccc2)CC1 (stereo unspecified),inactive: 113%
12,COc1ccc2nc3sc(C(=O)NCCc4ccc(Cl)cc4)cc3cc2c1,inactive: 92%
13,Cn1c(=O)c2c(n3nnnc13)-c1ccccc1CC21CCCC1,inactive: 107%
14,Cc1cccc(C)c1Nc1sc(C(=O)c2ccccc2)c(N)c1S(=O)(=O)c1ccccc1,inactive: 90%
15,Cn1cc2ccc(N)cc2n1,inactive: 98%
16,Cc1ccc(CCNC(=O)c2cc(-c3ccccc3)n[nH]2)cc1,inactive: 73%
17,CCN(C(=O)c1sc2nc3n(c(=O)c2c1C)CCCC3)c1ccccc1F,inactive: 82%
18,CC(=O)c1ccc(NC(=O)CSc2nnc3ccc(-c4ccc(F)cc4)nn23)cc1,inactive: 68%
19,Cc1cccc(NC(=O)C2CCCN2S(=O)(=O)c2cccc3nsnc23)c1C (stereo unspecified),inactive: 72%
20,CCC1=C(c2ccc(C)cc2)S(=O)(=O)N=C1N1CCC(C(=O)Nc2ccccc2C(=O)OC)CC1,inactive: 71%
21,CN(C)c1ccc(C(CNC(=O)c2ccc(C(C)(C)C)cc2)N2CCCC2)cc1 (stereo unspecified),inactive: 101%
22,Cc1cn2c(=O)cc(COc3ccc(NC(=O)c4ccc(C(C)(C)C)cc4)cc3)nc2s1,inactive: 129%
23,COc1ccc(CNC(=O)CCc2c(C)nn(-c3ccc(N4CCOCC4)nn3)c2C)c(OC)c1,inactive: 58%
24,CCOC(=O)c1ccc(NC(=O)CN2C(=O)C(C)(C)c3ccccc32)cc1,inactive: 111%
25,CCc1nc(C)ccc1O,inactive: 103%
26,Cc1ccc(C)c(NC(=O)c2cnn(-c3ccc(F)cc3F)c2C2CCNCC2)c1,inactive: 77%
